# Paper PMC4336329 (PLoS ONE, 2015)
# Hit rate of the full screen: of about 310,000 compounds, about 14,000 (4.5%) showed an effect of 50% or more. The effect is printed as a negative number. Some of the results follow.
# Target: human ether-à-go-go-related gene (hERG) potassium channel (human, UniProt Q12809)
# Assay: primary screen, population patch clamp on CHO cells stably expressing hERG
# 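Also: peak tail current of the secondary pulse compared with the same well before compound.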
# Sequence of human ether-à-go-go-related gene (hERG) potassium channel (Q12809 whole entry, looked up): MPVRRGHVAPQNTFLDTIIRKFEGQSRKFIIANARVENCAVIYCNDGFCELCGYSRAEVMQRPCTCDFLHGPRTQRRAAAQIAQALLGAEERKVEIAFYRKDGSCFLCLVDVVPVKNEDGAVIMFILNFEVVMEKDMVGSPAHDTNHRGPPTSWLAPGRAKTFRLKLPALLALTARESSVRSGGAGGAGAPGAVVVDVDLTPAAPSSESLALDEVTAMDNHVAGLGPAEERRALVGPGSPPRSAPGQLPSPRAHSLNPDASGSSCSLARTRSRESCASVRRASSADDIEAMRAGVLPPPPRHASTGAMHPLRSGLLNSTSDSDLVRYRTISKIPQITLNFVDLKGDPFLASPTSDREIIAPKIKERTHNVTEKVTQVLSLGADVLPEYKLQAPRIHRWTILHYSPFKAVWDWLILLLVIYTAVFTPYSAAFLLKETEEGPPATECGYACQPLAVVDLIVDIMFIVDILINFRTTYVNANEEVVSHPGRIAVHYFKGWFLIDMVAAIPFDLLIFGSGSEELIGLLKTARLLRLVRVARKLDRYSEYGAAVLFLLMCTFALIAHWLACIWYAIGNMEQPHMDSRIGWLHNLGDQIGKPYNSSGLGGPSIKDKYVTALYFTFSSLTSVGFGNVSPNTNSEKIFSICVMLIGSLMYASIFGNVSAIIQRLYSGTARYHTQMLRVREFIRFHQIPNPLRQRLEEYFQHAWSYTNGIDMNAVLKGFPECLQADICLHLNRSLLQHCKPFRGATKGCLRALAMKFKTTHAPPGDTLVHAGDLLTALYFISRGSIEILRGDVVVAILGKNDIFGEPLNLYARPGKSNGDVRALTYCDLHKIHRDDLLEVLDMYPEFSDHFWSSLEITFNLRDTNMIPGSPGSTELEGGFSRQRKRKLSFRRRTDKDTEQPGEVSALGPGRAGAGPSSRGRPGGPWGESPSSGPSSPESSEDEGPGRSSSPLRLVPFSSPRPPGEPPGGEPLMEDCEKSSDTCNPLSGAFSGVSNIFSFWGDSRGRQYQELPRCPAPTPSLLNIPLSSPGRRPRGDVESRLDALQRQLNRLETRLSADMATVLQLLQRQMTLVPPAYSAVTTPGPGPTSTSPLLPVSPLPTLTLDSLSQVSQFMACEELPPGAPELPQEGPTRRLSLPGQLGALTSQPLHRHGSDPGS
row,SMILES,"hERG current change (%, negative = inhibition) at 10uM"
1,COc1ccc(-c2cn(/N=C/c3ccc(Cl)cc3Cl)c(N)n2)cc1,-0.619%
2,NC(=O)C1CCN(Cc2nc3cc(C(F)(F)F)ccc3c(=O)[nH]2)CC1,8.39%
3,O=C(Nc1nccs1)c1ccc(Cl)nc1,17.9%
4,C=CCNC(=O)c1ccc2c3n(nc2c1)-c1ccccc1CO3,-14.4%
5,CCOC(=O)c1nc2nc(C)cc(=O)n2[nH]1,2.41%
6,N#C/C(=C\c1cccnc1)C(=O)Nc1cccc(Cl)c1,0.0277%
7,CC1=C(C(=O)Nc2ccccc2F)C(c2ccsc2)C2=C(CC(C)(C)CC2=O)N1 (stereo not drawn),3.24%
8,N#Cc1cn(CC(=O)NCc2cccnc2)c2ccccc12,-0.289%
9,N#Cc1nc(Cc2ccccc2)oc1N1CCC(C(N)=O)CC1,-8.65%
10,Cc1cc(C)nc(N2CCCC(C(=O)Nc3ccc4c(c3)OCO4)C2)n1 (stereo not drawn),12.7%
11,COc1ccc2[nH]c(=O)c(CN(C(=O)c3cccnc3)c3ccc(C)cc3)cc2c1,7.25%
12,COc1ccccc1CN(Cc1ccco1)S(=O)(=O)c1ccc(-n2cnnn2)c(OC)c1,7.21%
13,Cc1ccc2c(C)c(C(=O)N(C)CCC3CCCCO3)oc2c1C (stereo not drawn),-33.9%
14,CSc1nsc(SCC(=O)Nc2ccc(OC(C)=O)cc2)n1,4.1%
15,COc1ccc2c(c1)CCc1c(C(=O)N3CCCc4ccccc43)noc1-2,5.68%
16,CCOc1ccc(-c2c(C(=O)N/N=C/c3ccc(C)cc3)nnn2-c2nonc2N)cc1,-1.87%
17,C/C(=N\NC(=O)Nc1ccccc1)c1ccccc1,9.14%
18,Cc1c([N+](=O)[O-])c([N+](=O)[O-])nn1CC(=O)N1CCOCC1,23.2%
19,CCC1CCC2(CC1)NC(=O)N(CC(=O)Nc1ccc(OC)c(Cl)c1)C2=O (stereo not drawn),0.761%
20,O=C(CSc1nnc(-c2ccncc2)o1)NC1CCCCC1,3.27%
21,CCn1c(SCC(=O)Nc2nc(C)cs2)nnc1-c1cccnc1,-5.29%
22,CCc1ccc(/C=C(\C)C(=O)c2c(C)cc(C)[nH]c2=O)cc1,-4.81%
23,N#C/C(=C\Nc1ccc2c(c1)OCCO2)c1nc(-c2ccccc2)cs1,23.4%
24,c1ccc2c(CSc3nnc(-c4ccncc4)o3)cccc2c1,-12.8%
25,COc1ccc(/C=N/NC(=S)Nc2cc(S(=O)(=O)N3CCOCC3)ccc2N2CCOCC2)cc1O,-7.4%
26,Cc1cccc(-n2c(-c3csc(C(C)C)c3)n[nH]c2=S)c1,-6.32%
27,Cc1ccc(-c2noc(CN3CCN(Cc4ccccc4)CC3)n2)cc1,-34.3%

row,SMILES,"hERG current change (%, negative = inhibition) at 10uM"
1,CC(=O)N1CCc2cc(Br)cc(S(=O)(=O)NCc3ccc(Cl)cc3)c21,-58.6%
2,C=CCNC(=O)c1ccccc1NC(=O)C1CCN(S(=O)(=O)c2ccc(SC)cc2)CC1,-70%
3,COCCn1c(=O)c2c(nc3n2CCCN3CCc2ccc(OC)c(OC)c2)n(C)c1=O,0.432%
4,Cc1cccc(N/N=C2/COC(C)(C)CC2=O)c1,5.86%
5,CCN(CC)C(=O)CSc1ncnc2sc(C)c(C)c12,-23.9%
6,CC1CC(C)CN(C(=O)COC(=O)CCCN2C(=O)c3cccc4cccc(c34)C2=O)C1 (stereo not drawn),-20.2%
7,NNC(=O)c1oc2ccccc2c1-n1cccc1,10.2%
8,COc1cc([C@@H]2c3cc4c(cc3[C@@H](O[C@@H]3O[C@@H]5CO[C@@H](C)O[C@H]5[C@H](O)[C@H]3O)[C@H]3COC(=O)[C@H]23)OCO4)cc(OC)c1O,8.25%
9,Cn1c(N)c(C(=O)COC(=O)/C=C/c2ccc(F)cc2)c(=O)n(C)c1=O,-51.8%
10,COc1ccc(N(CC(=O)NCc2ccccc2OC)S(=O)(=O)c2ccccc2[N+](=O)[O-])c(OC)c1,3.17%
11,N#Cc1ccccc1NC(=O)COC(=O)C1CCN(C(=O)c2ccc(Cl)cc2)CC1,-62.5%
12,COc1ccccc1/C=C1\SC(=S)N(Nc2nc(C)cc(C)n2)C1=O,-0.159%
13,CCCCOC(=O)c1ccc(NC(=S)NC(=O)c2c(Cl)cnn2CC)cc1,-4.98%
14,O=C(c1ccccc1F)N1CCN(S(=O)(=O)c2ccc(Br)cc2)CC1,-36.6%
15,Cn1c(=O)c2cc(S(=O)(=O)N3CCOCC3)ccc2n(C)c1=O,-10.1%
16,COc1ccc(-c2noc(-c3cccc(Cl)c3)n2)cc1OC,14.1%
17,O=[N+]([O-])c1cc(S(=O)(=O)Nc2cccc(Cl)c2)ccc1N=Nc1c(O)[nH]c2ccccc12,0.91%
18,CCOc1ccc(C(=O)COC(=O)c2cc([N+](=O)[O-])ccc2N2CCOCC2)cc1,-19%
19,COc1ccccc1N1CCN(C(=O)c2cc(-c3ccccc3O)on2)CC1,6.6%
20,CCCCn1c(O)c(C(CC)=Nc2ccc(C(=O)O)cc2)c(=O)[nH]c1=O,20.6%
21,Cc1ccc2c(c1)cc(CN(Cc1ccco1)C(=O)N1CCOCC1)c1nnnn12,-14.7%
22,COc1cccc(C(=O)N(CN2CCCC2=O)c2cc(C)on2)c1,8.05%
23,Cn1c(=O)c2c(nc(N3CCCCC3)n2CC(O)COc2ccccc2)n(C)c1=O (stereo not drawn),-2.61%
24,O=C(O)C1CC=CCC1C(=O)NCCCCc1ccccc1 (stereo not drawn),27.4%
25,COc1cc(C2C(C(=O)c3cccs3)=C(O)C(=O)N2CCN2CCOCC2)ccc1OCCC(C)C (stereo not drawn),14.7%
26,O=C(NCCN1CCN(Cc2ccccc2Cl)CC1)Nc1ccccc1,-47.5%
27,Cc1nc(N2CCN(S(=O)(=O)c3ccccc3)CC2)c2cc(-c3ccccc3)sc2n1,6.6%
